Laboratory results taken from ChEMBL document CHEMBL4888484, “Replenishing the malaria drug discovery pipeline: Screening and hit evaluation of the MMV Hit Generation Library 1 (HGL1) against asexual blood stage Plasmodium falciparum ,using a nano luciferase reporter read-out” (2022).
Out of some 150,000 compounds screened, about 540 (0.36%) showed an effect of 50% or more. The list shows a part of the results.

These compounds were tested on Plasmodium falciparum (assay: Primary screen in NF54 nanoGlo assay, in single point, at 2uM, 72h; a lower Z score goes with more inhibition). Conditions: timepoint 72 hour.
Format: functional, Erythrocyte

Structure (SMILES)	% Inhibition	Z score
CCNc1ccc(C#N)cc1NCCO	-16%	2.34
CN(CC(=O)N(C)Cc1cnc(-c2ccccc2)s1)C(N)=O	-2%	0.38
CC[C@H](NC(=O)CCC(F)(F)F)c1cc(C)ccn1	-16%	2.02
Cc1cc(C)n([C@H]2[C@@H]3OC[C@@H](O3)[C@@H](NCCC(C)(C)C)[C@@H]2O)n1	26%	-2.94
Cn1nc(C2CC2)nc1CC(=O)N1CCc2cc(F)c(F)cc21	-5%	0.68
CC(C)c1ncc(Br)c(C(=O)O)n1	3%	-0.4
CN(CCc1ccccn1)C(=O)NCc1csc(N2CCOCC2)n1	-12%	1.28
CC(C)(C)c1ccc(C(=O)N2C3CCC2CC(Oc2cccnc2)C3)cc1 (stereo not given)	-4%	0.43
O=C(c1ccc(COc2ccc3c(c2)CCC3)cc1)n1cc(Br)cn1	-3%	0.35
CN1CCCN(c2nc(C(F)(F)F)nc3ccsc23)CC1	-18%	2.59
O=C(c1cnccn1)N1CCC[C@@H]1CS(=O)(=O)c1ccccc1	-9%	1.48
Cc1cnn(C)c1S(=O)(=O)N[C@H]1C[C@H](c2cc(N3CCCC3)ncn2)C1	-2%	0.39
CCCN1C[C@@H]2CC[C@H]1CN(C(=O)c1ccc(-n3nc(C)cc3C)cc1)C2	-21%	2.05
CCC1=C(c2ccc(C)cc2)S(=O)(=O)N=C1N1CCC(C(=O)NCCCc2ccccc2)CC1	-9%	1.6
Cc1csc(CN(C)C(=O)Nc2cccc3c2CCC3)n1	-6%	1.18
O=S(=O)(c1cncc(F)c1)N1CCC[C@H]1c1cccc(F)c1	-6%	1.16
Cc1cc2c(=O)n(CCO[C@@H]3CCCCO3)cnc2cc1F	2%	-0.23
O=C(Cn1cccn1)N1CCC(n2c(=O)[nH]c3ccccc3c2=O)CC1	-3%	0.61
CCCN1CCC[C@H]1c1nc(Cc2ccccc2)no1	-10%	1.31
CC1CCC2C(CCCN2C(=O)c2cnns2)C1 (stereo not given)	-13%	1.67
Cc1cnc(-n2cnnc2)c(-c2cccc(C(=O)N3CCC4(CCO4)CC3)c2)c1	-4%	0.7
COC(=O)c1cnc(NC(=O)[C@@H](C)C2CC2)c(O)c1	-19%	2.43

Structure (SMILES)	% Inhibition	Z score
COC[C@H]1CC[C@H]1NC(=O)N(C)Cc1ccoc1	-1%	0.14
CCNc1ccc(Cl)cc1C(=O)N1CCc2cnccc21	-5%	0.48
COc1ncc(C(=O)N[C@@H](C)c2cnn(-c3ccc(F)cc3F)c2C)cn1	-9%	1.42
Cn1ccc([C@@H]2CCCCCN2S(=O)(=O)c2ccc(F)cc2)n1	5%	-0.6
COc1ccc(NC(=O)Cn2c(C)ncc(C(=O)NC3CCCC3)c2=O)c(OC)c1	3%	-0.44
O=S(=O)(Cc1ccccc1)N1CC[C@H](Cc2nncn2CC2CC2)C1	-12%	2.15
O=C(c1cccc(CC2CCNCC2)c1)N1CCC(c2cccc(O)c2)CC1	-4%	0.5
Cc1nc(C(=O)N(CCO)CC(F)F)c(Br)s1	-9%	1.2
Cc1c(F)cccc1S(=O)(=O)N1CCn2c(nn(C)c2=O)C1	-10%	1.19
O=C(NC1CCCC1)[C@H]1CCCN(S(=O)(=O)Cc2ccccc2Cl)C1	-14%	1.81
O=C(c1ccc(F)c(F)c1)N1CC2(C[C@H](N3CCCC3)CO2)C1	-7%	1.1
CC(C)c1nocc1C(=O)NC1CC(O)c2ccccc21 (stereo not given)	-12%	1.39
CC[C@H](NC(=O)c1cc2ccccc2o1)C(=O)NCCc1c[nH]c2ccccc12	-2%	0.25
O=C(COc1ccccc1)NC[C@H]1CCCN(C(=O)C2CCOCC2)C1	9%	-1.16
CC[C@H]1CC[C@@H](C)N(C(=O)c2cccc(C)n2)C1	-10%	1.2
CN(CN1CC(c2cccc(F)c2)CC1=O)C1CCS(=O)(=O)C1 (stereo not given)	-2%	0.26
CC(=O)Nc1c2n(c3ccccc13)C[C@@](C)(C(=O)NC1CCCCC1)N(C1CCCCCC1)C2=O	-3%	0.33
Cc1cccc(C(=O)N2CCCN(C(=O)c3ccc4c(N)ncnc4c3)CC2)c1	-7%	0.98
O=C(O)C(c1ccsc1)N1CCCC(c2nc(-c3ccc(F)cc3)no2)C1 (stereo not given)	-11%	1.92
Cc1cc(C(=O)Nc2cccc(OCC(F)F)n2)on1	-21%	1.79
CN1C[C@@H]2CN(C(=O)[C@H]3C[C@@H]3c3ccccc3)C[C@@H]2C1	5%	-0.63
CCCCC(=O)Nc1cc(Cl)c(OC)cc1OC	-25%	2.28

Structure (SMILES)	% Inhibition	Z score
Cc1ccc(CN(C)c2ncccn2)o1	2%	-0.22
CCOCC(=O)N1CCOc2cc(F)c(Br)cc21	-8%	1.11
CCc1ccccc1Nc1nc(C)c(C(=O)NCc2cccnc2)s1	38%	-4.96
O=C1NCCC[C@@]12CCN(S(=O)(=O)c1cc(F)c(F)cc1F)C2	1%	-0.11
CCCn1ccnc1CN(C)Cc1ccc(-n2cccn2)cc1	-6%	0.89
CC[C@H]1CN(c2ccc(-c3nc(-c4ccccc4C)no3)cn2)CCN1C	3%	-0.51
O=C(Nc1ccc(-c2cc[nH]n2)cc1)c1cnccn1	-14%	1.99
CC(C)(C)OC(=O)N[C@@H]1CCCCC[C@H]1NC(=O)c1cc(C2CC2)on1	-2%	0.18
COc1cccc(CN2CCC[C@@]3(CCN(C(=O)CC4CC4)C3)C2=O)c1OC	-5%	0.89
CCc1nc(-c2c3n(c(=O)n(CC(=O)Nc4ccc(C)cc4)c2=O)CCCC3)no1	-5%	0.6
COCCn1ccnc1CN1CCC[C@H]1c1nc(-c2ccncc2)no1	1%	-0.21
COCC[C@H](C)NC(=O)Nc1cccc(C(F)F)c1	-8%	0.69
Cn1ccnc1CN[C@H]1CCN(Cc2ccccc2)c2ccccc21	-7%	1.42
CCn1nc(C)cc1-c1cnc(C2CCOCC2)o1	-14%	2.53
O=C(Nc1ccnn1Cc1ccc(Cl)cc1Cl)c1csc(-c2ccco2)n1	-19%	3.63
COc1ccc2[nH]nc(CC(=O)N(C)C)c2c1	-34%	3.95
CCN(C(=O)[C@@H]1CCCCn2nnnc21)C1CCCCC1	1%	-0.12
C[C@@H](CNC(=O)COC1CCCCC1)N1CCN(C)CC1	-5%	0.48
Cc1cc(C)nc(NC(=O)c2sc(CC3CC3)nc2C)n1	-31%	3.69
Cn1c(C2CC2)nnc1N1CCc2cc(F)ccc2C1	-17%	3.22
CC(=O)N[C@@H](CC(C)C)c1nc(-c2ccc(Br)o2)no1	-4%	0.55
CC(C)c1nc(CN2CCC[C@@](CO)(CC3CC3)C2)co1	-3%	0.27

Structure (SMILES)	% Inhibition	Z score
CC1CCN(S(=O)(=O)c2cccn(CC#N)c2=O)CC1	-7%	1
O=C(CN(CC(O)c1ccccc1)C1CC1)NCC1CCCO1 (stereo not given)	-8%	1.16
C[C@@H](CN1CC2(CCN(CCOCCO)CC2)OC1=O)c1ccccc1	15%	-1.64
COc1c(C)cnc(Cn2ccn3nc(-c4ccccc4)cc3c2=O)c1C	-3%	0.36
C[C@H](NC(=O)c1csc(-c2cccs2)n1)C1CC1	-4%	0.65
COc1ccccc1NC(=O)c1csc(-c2ccc(C)n2C)n1	-7%	0.82
Cc1ccc(N2C[C@@H](C(=O)N3CCS(=O)(=O)CC3)CC2=O)cc1	-12%	2.59
COc1cc(Cc2cc(-c3ccccc3)n[nH]c2=O)cc2c1OCCO2	-11%	1.52
CC1(C)CC(=O)c2cnc3c(C(=O)N4CCC(Cc5ccccc5)CC4)cnn3c2C1	-1%	0.15
O=C(C1CCC1)N(Cc1ccncc1)C1CC1	7%	-0.96
O=C(NCc1nc(C2CCOCC2)no1)c1ccc(Br)o1	-6%	1.07
CCc1nncn1CCN[C@@H](C)c1ccc(-n2cnnn2)cc1	-5%	0.46
Cc1ccc(C)c(OCCc2nnc(NC(=O)[C@H]3CCCN(C)C3)s2)c1	-10%	1.83
Cc1[nH]c2ccccc2c1CN1CCC(CCC(=O)NCc2ccc(F)cc2)CC1	5%	-0.76
COc1ccccc1S(=O)(=O)N1CC(c2ccccc2)C(c2nc(C)no2)C1 (stereo not given)	3%	-0.55
c1cc(CNc2cc(-c3ccc(Cn4ccnc4)cc3)c3cc[nH]c3n2)ccn1	0%	-0.05
CN1C(=O)C2(CCN(C(=O)c3ccc(F)c(F)c3)CC2)c2ccccc21	-15%	2.9
CCN1CCN(Cc2cccn2-c2nnc(N3CCN(Cc4ccccc4)CC3)s2)CC1	4%	-0.41
CC(=O)c1ccc(N2CCN(C(=O)c3noc(-c4ccc[nH]c4=O)n3)CC2)cc1	-22%	1.98
